Experimental data reported in the BET-seq Pho4 binding data (Le et al. 2018).
This is one part of the list. These are noisy estimates, calculated here from bound and input reads.

target: T1, Pho4 (S. cerevisiae) (UniProt P07270); assay: relative binding free energy (BET-seq); higher = weaker binding; conditions: reference: library average
T1 sequence: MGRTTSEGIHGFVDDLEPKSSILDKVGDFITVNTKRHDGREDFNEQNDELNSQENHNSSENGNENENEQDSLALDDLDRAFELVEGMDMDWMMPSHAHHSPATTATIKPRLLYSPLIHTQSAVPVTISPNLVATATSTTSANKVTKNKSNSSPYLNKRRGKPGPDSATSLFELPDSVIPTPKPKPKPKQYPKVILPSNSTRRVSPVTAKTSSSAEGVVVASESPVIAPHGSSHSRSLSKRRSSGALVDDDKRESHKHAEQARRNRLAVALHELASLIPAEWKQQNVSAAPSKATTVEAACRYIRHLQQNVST

Row | Sequence | relative binding free energy [kcal/mol]
1 | TTATGCACGTGGCGTC | -0.12
2 | AGTTGCACGTGATGAG | 0.15
3 | TAGTTCACGTGGGTAT | 0.17
4 | ATGGGCACGTGTAGTA | -0.19
5 | TTGTGCACGTGCTTTA | -0.05
6 | AGTGGCACGTGTTAGC | -0.16
7 | CTTTGCACGTGTTGCG | -0.01
8 | AGTGCCACGTGTGAGT | -0.01
9 | GCTGGCACGTGGTTCT | -0.04
10 | CTGGGCACGTGGCGAG | -0.24
11 | GAGGTCACGTGTCAGT | 0.15
12 | CATGGCACGTGGAGGG | -0.24
13 | AATTACACGTGATGGT | 0.25
14 | TCATGCACGTGTTGGT | -0.16
15 | CTTGGCACGTGCAGTG | -0.09
16 | CAGATCACGTGGGGTA | -0.05
17 | GTGAACACGTGTGATG | 0.01
18 | GGCGACACGTGGTATG | -0.03
19 | ATTTGCACGTGGTGAC | -0.09
20 | GGGTCCACGTGGGAGG | 0.05
21 | TTCGTCACGTGGGGTC | -0.05
22 | GTGAGCACGTGCGGTT | -0.02
23 | GGCATCACGTGGTGTT | 0.05

Row | Sequence | relative binding free energy [kcal/mol]
24 | TTGGTCACGTGCATGA | 0.06
25 | TGAGGCACGTGTATGG | -0.09
26 | AGGATCACGTGGCGTG | 0.01
27 | ATTGTCACGTGTAACT | 0.16
28 | GGGGACACGTGGGTAT | -0.12
29 | GTGATCACGTGAGGTG | 0.27
30 | TATTACACGTGAGGGA | 0.4
31 | TCGTTCACGTGTAGTG | 0.25
32 | AGTGGCACGTGCCTGG | -0.22
33 | TATGTCACGTGTTCAT | 0.05
34 | TTCATCACGTGGATGG | 0.1
35 | TTATACACGTGTTTTA | -0.04
36 | ATGGACACGTGATATT | 0.06
37 | ATCTTCACGTGGGGAA | 0.1
38 | TCGTTCACGTGTGGCG | 0.12
39 | AGGATCACGTGGGATA | 0.15
40 | CTGTTCACGTGAGGCG | 0.33
41 | GGGAGCACGTGGTAGT | -0.09
42 | GGTTTCACGTGTGCAG | 0.15
43 | GTAGTCACGTGGAGGA | 0.09
44 | CTTTGCACGTGTGTTG | -0.01
45 | TAGGCCACGTGTTGAA | 0.06
46 | GTATTCACGTGAAAGT | 0.26

Row | Sequence | relative binding free energy [kcal/mol]
47 | TGGTGCACGTGAGGTG | 0.24
48 | TACATCACGTGGGAGG | 0.05
49 | TGTTGCACGTGGGCTT | -0.04
50 | TCGAACACGTGAGGGT | 0.27
51 | ATCGTCACGTGTAGTT | 0.19
52 | GGTACCACGTGTGGTT | 0
53 | TTATGCACGTGCAAGG | 0.02
54 | AGCTGCACGTGTCTGG | 0.13
55 | AGAAACACGTGTTTTT | 0.01
56 | GTAGACACGTGGTAAG | 0.04
57 | CAGTTCACGTGATGTA | 0.3
58 | GGTCTCACGTGGGGGA | 0.15
59 | GTTGCCACGTGGGTGT | -0.22
60 | TATGTCACGTGAATCT | 0.54
61 | GTTTGCACGTGGTTCA | 0.06
62 | GTGCTCACGTGTGTCG | 0.31
63 | TGGACCACGTGGGGTT | -0.21
64 | TAGCACACGTGATGGT | 0.05
65 | TGAGGCACGTGCGCGT | -0.23
66 | TAAGTCACGTGTGCTG | 0.06
67 | TGTTCCACGTGTTCTG | -0.01
68 | GGGTACACGTGTTGAG | 0.21
69 | AAGTTCACGTGAATAT | 0.36

Row | Sequence | relative binding free energy [kcal/mol]
70 | TTATGCACGTGTCTTA | -0.15
71 | TGTCGCACGTGTTTGA | -0.15
72 | TGAGGCACGTGGTACG | -0.23
73 | GTGTACACGTGGTGCT | 0.04
74 | AATTTCACGTGAGCAT | 0.49
75 | CATTGCACGTGGGTAG | -0.31
76 | TACGACACGTGTTTGG | 0.11
77 | TTATCCACGTGGTATT | -0.11
78 | CTTTTCACGTGGGTAA | 0.04
79 | GGGGGCACGTGTAATG | 0.04
80 | GTGCCCACGTGATGTG | 0.21
81 | AGTGTCACGTGCTTGA | -0.01
82 | TGGCTCACGTGAACGG | 0.31
83 | TAAGCCACGTGGGGTC | -0.16
84 | TTATACACGTGTTCAG | 0.05
85 | TGGTACACGTGCCTGG | -0.09
86 | TGATTCACGTGTAGTT | 0.43
87 | TGCACCACGTGGGTGT | -0.3
88 | TGTAGCACGTGGCAAT | -0.23
89 | TTGTCCACGTGTGGTG | -0.04
90 | TACGGCACGTGAGAGG | 0.05
91 | ATAGGCACGTGGTCTT | -0.14
92 | GCATTCACGTGTGTCT | 0.42

Row | Sequence | relative binding free energy [kcal/mol]
93 | TTCGGCACGTGTTGTT | -0.05
94 | TTGGCCACGTGTTATA | -0.04
95 | GTGGCCACGTGTGATG | 0
96 | GGGTGCACGTGCTTTT | 0.03
97 | TACGTCACGTGGGGCT | -0.16
98 | GAGGGCACGTGTTGAA | -0.03
99 | TGTTCCACGTGAGGAG | 0.18
100 | CGGGGCACGTGTGGAC | 0.03
101 | GTTTACACGTGTTAAT | 0.11
102 | TAAGACACGTGTAATT | 0.21
103 | GGCTGCACGTGGCATG | -0.09
104 | GTTTGCACGTGGTGTC | -0.01
105 | TAGTTCACGTGATGAC | 0.36
106 | TCTGTCACGTGTGGGT | 0.12
107 | TGGTCCACGTGGGAAA | -0.03
108 | GGATACACGTGGGAGT | -0.09
109 | GTTGACACGTGTGACG | 0.18
110 | AGGTGCACGTGCGGTT | -0.06
111 | GTGTTCACGTGGGTTT | 0.23
112 | CGAGTCACGTGAGGTG | 0.35
113 | CGCGGCACGTGTTGTA | -0.11
114 | GATGTCACGTGTGTAT | 0.17
115 | TGCGACACGTGGGGTG | -0.16
